Data from PubChem BioAssay AID2147 (National Center for Advancing Translational Sciences (NCATS), 2009).
The whole screen tested about 230,000 compounds, of which about 3,600 (1.6%) were called active. The shares of active, inactive and inconclusive entries below differ from those in the screen. Calls come from the whole dose curve; as a rule, active = well fitted inhibition curve with a large enough effect (not every such curve was filed as active); inconclusive = small, poorly fitted or top-dose-only effect, or another doubt; inactive = no such curve, though single readings can be large or run the other way. Where the call is inconclusive, the potency comes from a doubtful curve fit.

target: Lysine-specific demethylase 4E (Homo sapiens) (UniProt B2RXH2); test: qHTS Assay for Inhibitors of Human Jumonji Domain Containing 2E (JMJD2E); details: JMJD2E catalytic domain, FDH-coupled NADH fluorescence (FDH is formaldehyde dehydrogenase); series mostly up to 57.1 µM
Note: nearly all actives have a fitted effect of over 50% in size.
Potency is the fitted concentration of half-maximal effect; tags give direction and shape of the fitted curve.

Sequence of UniProt B2RXH2 (B2RXH2 whole entry, looked up, the tested form may be a part): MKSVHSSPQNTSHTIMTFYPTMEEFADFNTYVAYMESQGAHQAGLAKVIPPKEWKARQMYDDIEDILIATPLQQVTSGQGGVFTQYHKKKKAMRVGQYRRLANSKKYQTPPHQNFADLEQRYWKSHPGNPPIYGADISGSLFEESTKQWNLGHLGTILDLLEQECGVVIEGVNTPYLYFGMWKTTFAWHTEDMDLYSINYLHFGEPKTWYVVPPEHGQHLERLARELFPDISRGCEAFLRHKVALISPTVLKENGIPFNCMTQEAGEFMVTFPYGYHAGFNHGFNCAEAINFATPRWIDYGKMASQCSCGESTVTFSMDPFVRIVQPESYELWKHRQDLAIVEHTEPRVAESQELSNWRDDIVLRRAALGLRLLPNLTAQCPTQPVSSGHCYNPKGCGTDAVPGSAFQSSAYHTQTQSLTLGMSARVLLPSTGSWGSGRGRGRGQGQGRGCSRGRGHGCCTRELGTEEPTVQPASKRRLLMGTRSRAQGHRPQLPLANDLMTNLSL

| SMILES | Potency |
| --- | --- |
| N#C/C(=C/c1ccc(N2CCOCC2)o1)C(=O)N1CCOCC1 | inconclusive: 28.2 µM [inhibitor, single point] |
| CCn1c2ccccc2c2cc(/C=N/O)ccc21 | inconclusive: 25.1 µM [inhibitor, single point] |
| CCCCOC(=O)CCN1C(=O)/C(=C2\SC(=S)N(CCC(=O)OCCCC)C2=O)SC1=S | inactive |
| O=C1CCC/C1=C/Nc1ccc2c(c1)OCO2 | inconclusive: 39.8 µM [inhibitor, single point] |
| CCOC(=O)c1cnc(-c2ccc(C(F)(F)F)cn2)[nH]c1=O | inconclusive: 10 µM [inhibitor, partial curve] |
| COc1cccc2oc(-c3ccccc3)cc(=O)c12 | inconclusive: 28.2 µM [inhibitor, partial curve] |
| COC(=O)C1=C(C)NC2=C(C(=O)CC(C)(C)C2)C1c1cccc(C)n1 (stereo not given) | inconclusive: 31.6 µM [inhibitor, partial curve] |
| O=C(c1ccc2c3c(cccc13)CC2)N1CCOCC1 | inconclusive: 39.8 µM [inhibitor, single point] |
| COc1ccc(/C=C/C(=O)OCC(=O)NCCC2=CCCCC2)cc1OC | inconclusive: 25.1 µM [inhibitor, partial curve] |
| CCC(C)C(=O)Nc1nc(C)c(-c2csc(Nc3cc(OC)ccc3OC)n2)s1 (stereo not given) | inconclusive: 35.5 µM [inhibitor, single point] |
| Cc1ccc(Oc2ncnc(N)c2[N+](=O)[O-])cc1 | inactive |
| COC(=O)c1c(-c2ccc(F)cc2)csc1NC(=O)c1ccco1 | inconclusive: 28.2 µM [inhibitor, partial curve] |
| c1ccc(CCn2c3ccccc3c3nnc(SCc4ccc5nonc5c4)nc32)cc1 | inactive |
| COCCCNc1nc2nonc2nc1N1CCN(Cc2cccc(C)c2)CC1 | inconclusive: 39.8 µM [inhibitor, single point] |
| CCOc1ccc(NC2=CC(=O)CC(c3ccco3)C2)cc1 (stereo not given) | inactive |
| Cc1ccc(C2NC(=O)c3c(sc(C)c3C)N2)c(O)c1 (stereo not given) | inconclusive: 35.5 µM [inhibitor, single point] |
| Cc1cc(=O)oc(C)c1C(=O)NCCNC(=O)c1c(C)cc(=O)oc1C | inconclusive: 39.8 µM [inhibitor, single point] |
| COc1cccc(Oc2ccc(OC)cc2C(=O)O)c1 | inconclusive: 17.8 µM [inhibitor, partial curve, poor fit] |
| COCCCn1cc(C(=O)c2ccccc2OCC(=O)Nc2cccc(F)c2)cc(C#N)c1=O | inconclusive: 35.5 µM [inhibitor, single point] |
| C=CCn1c(C)nc2c(sc3nc4c(cc32)COC(C)(C)C4)c1=O | inconclusive: 35.5 µM [inhibitor, partial curve] |
| COc1cc(/C=N/Nc2nc3ccccc3[nH]2)ccc1O | inconclusive: 25.1 µM [inhibitor, single point] |
| CCCCCCCCCCCCC/C=C/[C@@H](O)[C@H](CO)NCCCCCCCC | inconclusive: 8.91 µM [inhibitor, single point] |
| COc1cc(OC)c2ccc(=O)oc2c1C(CC(=O)N1CCN(c2ccccc2)CC1)c1ccc2c(c1)OCO2 (stereo not given) | inconclusive: 28.2 µM [inhibitor, single point] |
| Cc1cccc(-c2cc3nc(-c4ccccc4)cc(N4CCC5(CC4)OCCO5)n3n2)c1 | inconclusive: 8.91 µM [inhibitor, partial curve] |

| SMILES | Potency |
| --- | --- |
| Cc1cc(=O)oc2cc(NS(=O)(=O)c3ccc(F)cc3)ccc12 | inconclusive: 12.6 µM [inhibitor, partial curve] |
| CCC1(C)Cc2ccccc2-c2nc(NCCCO)n(-c3ccccc3)c(=O)c21 (stereo not given) | inconclusive: 28.2 µM [inhibitor, partial curve] |
| COc1ccccc1N1C(=N)S/C(=C\c2ccc(-c3ccccc3C(=O)O)o2)C1=O | inactive |
| Cc1ccc(-n2cc(-c3ccccc3)c3c(N4CCOCC4)ncnc32)cc1 | inconclusive: 35.5 µM [inhibitor, single point] |
| CNc1nc2c(C)cccn2c(=O)c1C=NCc1ccccc1 | inconclusive: 31.6 µM [inhibitor, partial curve] |
| CC(C)(C)OC(=O)NCCc1nnc(SCC(=O)c2ccc(Cl)cc2)o1 | inactive |
| O=c1cc(O)c2ccccc2n1Cc1ccccc1F | inconclusive: 22.4 µM [inhibitor, single point] |
| Cc1nc(NCc2ccccc2)c2nc(-c3ccccc3)n(CCN(C)C)c2n1 | inconclusive: 28.2 µM [inhibitor, partial curve] |
| CCOc1nc(NCCC2=CCCCC2)nc(N2CCOCC2)n1 | inactive |
| COc1ccccc1OCC(=O)OCC(=O)Nc1sccc1C(N)=O | inconclusive: 39.8 µM [inhibitor, single point] |
| CCO[C@@H]1OC(C(=O)Nc2ccccc2)=C[C@H](c2csc3ccccc23)[C@H]1CCCO | inactive |
| COc1ccc(NC(=O)/C(Cl)=C(/Cl)S(=O)Cc2ccc(Cl)cc2)cn1 (stereo not given) | inactive |
| Cc1ccc2c(c1)c(C)cc[n+]2Cc1ccccc1 | inconclusive: 35.5 µM [inhibitor, single point] |
| COc1cccc(/C=C/C(=O)OCC(=O)N2c3ccccc3NC(=O)C2(C)C)c1 | inconclusive: 31.6 µM [inhibitor, partial curve] |
| CC(C)NC(=O)[C@H]1C[C@@H]1[C@H](NC(=O)OCc1ccccc1)c1ccccc1 | inactive |
| Cc1ccc(C)c(N(C(=O)c2nsc(Cl)c2Cl)C(C(=O)NC2CCCC2)c2ccc(O)cc2)c1 (stereo not given) | inactive |
| Cc1onc(-c2ccccc2Cl)c1C(=O)Nc1nn[nH]n1 | inactive |
| Cc1ccc(NC(=O)c2cc(-c3ccccc3)nn2-c2ccccc2)cc1 | inconclusive: 39.8 µM [inhibitor, single point] |
| COc1ccccc1Nc1nc2ccccc2n2cnnc12 | inconclusive: 35.5 µM [inhibitor, single point] |
| N#Cc1ccc(-c2csc(NNC(=O)c3ccc(Br)cc3)n2)cc1 | inconclusive: 22.4 µM [inhibitor, partial curve] |
| CCCCc1nc(NCc2ccccc2)c(C#N)c2c1COC(C)(C)C2 | inconclusive: 7.08 µM [inhibitor, single point] |
| COC(=O)c1cc(OC)c(OC)cc1NC(=S)Nc1cccc(C(C)=O)c1 | inconclusive: 35.5 µM [inhibitor, single point] |
| CC1=C(C(=O)OCC2CCCO2)C(c2ccccc2)C2=C(CC(C)(C)CC2=O)N1 (stereo not given) | inconclusive: 31.6 µM [inhibitor, partial curve] |
| CCc1cc2c(CN3CCN(CC)CC3)cc(=O)oc2cc1O | inconclusive: 28.2 µM [inhibitor, partial curve] |

| SMILES | Potency |
| --- | --- |
| O=C(CN1c2cccc3cccc(c23)S1(=O)=O)Nc1ccccc1 | inconclusive: 28.2 µM [inhibitor, partial curve] |
| Cc1c[nH]c2cccc(OCC(O)CNC(C)(C)C)c12 (stereo not given) | inconclusive: 39.8 µM [inhibitor, single point] |
| COC(=O)c1ccc(C(=O)OC)c(NC(=O)CSc2cccc[n+]2[O-])c1 | inconclusive: 35.5 µM [inhibitor, single point] |
| CC(=O)C1=C(C)Nc2ncnn2C1c1ccccc1OCc1ccccc1 (stereo not given) | inactive |
| Cc1cc(-c2nc3ncccc3o2)ccc1NC(=S)NC(=O)c1ccco1 | inconclusive: 25.1 µM [inhibitor, partial curve] |
| CCCCCSc1nnc(-c2ccccc2N)c(=O)[nH]1 | inactive |
| N#Cc1nc(-c2ccccc2)oc1N1CCCCC1 | inconclusive: 31.6 µM [inhibitor, partial curve] |
| Cn1nc(C(=O)NCCc2ccc(S(N)(=O)=O)cc2)c2ccccc2c1=O | inactive |
| N#Cc1c(Cl)cccc1N1CCC(C(N)=O)CC1 | inactive |
| Nc1c(S(=O)(=O)c2ccccc2)c2nc3ccccc3nc2n1/N=C/c1cccc(O)c1 | inconclusive: 22.4 µM [inhibitor, partial curve] |
| COc1ccc2c(c1)OCC1=C2CCC2(C)C(=O)CC=C12 (stereo not given) | inconclusive: 31.6 µM [inhibitor, partial curve] |
| COCCNC(=O)[C@H](CSCc1ccccc1)N1Cc2ccccc2C1=O | inactive |
| Cc1ccnn1CCC(=O)N1CCCC(CCC(=O)N2CCN(c3ccccn3)CC2)C1 (stereo not given) | inconclusive: 31.6 µM [inhibitor, single point] |
| CCCCNC(=O)c1onc(CSc2cccc3ccccc23)c1C(=O)O | inactive |
| Clc1ccc(OCCCN2CCCCC2)c(Br)c1 | inconclusive: 39.8 µM [inhibitor, single point] |
| CCOC(=O)c1cnc2cc3c(cn2c1=O)CCCC3 | inconclusive: 28.2 µM [inhibitor, partial curve] |
| CCN(CC)c1ccc2cc(-c3nnc(-c4ccccc4)o3)c(=O)oc2c1 | inconclusive: 3.98 µM [inhibitor, single point] |
| COC(=O)c1c(NC(=O)c2ccoc2C)sc2c1CCC2 | inconclusive: 14.1 µM [inhibitor, partial curve] |
| CCN1CC2=C(OC(N)=C(C#N)C2c2cccs2)/C(=C/c2cccs2)C1 (stereo not given) | active: 14.1 µM |
| CCCN(CCC)c1ccc(/C=C/c2ccc3cc(OCC)ccc3n2)cc1 | inconclusive: 39.8 µM [inhibitor, single point] |
| Cc1cccc(NC(=O)CN2C(=O)S/C(=C\c3cc(C)n(C)c3C)C2=O)c1 | inactive |
| O=C(Cc1csc(NC(=O)c2ccccc2)n1)NO | inconclusive: 39.8 µM [inhibitor, single point] |
